For assay [1], the target named is T1, claudin-2 lacking the PDZ-binding motif, with C-terminal HA tag (Cldn2^ΔPDZ/HA) (UniProt P57739).
T1 sequence: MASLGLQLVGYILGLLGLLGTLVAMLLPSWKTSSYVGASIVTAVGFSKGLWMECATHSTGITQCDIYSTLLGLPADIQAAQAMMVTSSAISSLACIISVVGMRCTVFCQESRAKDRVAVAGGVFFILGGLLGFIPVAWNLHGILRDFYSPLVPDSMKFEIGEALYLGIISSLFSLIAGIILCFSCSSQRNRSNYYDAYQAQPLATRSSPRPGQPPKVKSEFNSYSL
In words: co-IP; total lysate of HK-2 cells transfected with Cldn2^HA/Full or Cldn2^ΔPDZ/HA; immunoprecipitation with anti-HA-tag antibody, blot with anti-HA and anti-YAP.

Amino acid sequences for entries named in this document (tags omitted).
UniProt P46937: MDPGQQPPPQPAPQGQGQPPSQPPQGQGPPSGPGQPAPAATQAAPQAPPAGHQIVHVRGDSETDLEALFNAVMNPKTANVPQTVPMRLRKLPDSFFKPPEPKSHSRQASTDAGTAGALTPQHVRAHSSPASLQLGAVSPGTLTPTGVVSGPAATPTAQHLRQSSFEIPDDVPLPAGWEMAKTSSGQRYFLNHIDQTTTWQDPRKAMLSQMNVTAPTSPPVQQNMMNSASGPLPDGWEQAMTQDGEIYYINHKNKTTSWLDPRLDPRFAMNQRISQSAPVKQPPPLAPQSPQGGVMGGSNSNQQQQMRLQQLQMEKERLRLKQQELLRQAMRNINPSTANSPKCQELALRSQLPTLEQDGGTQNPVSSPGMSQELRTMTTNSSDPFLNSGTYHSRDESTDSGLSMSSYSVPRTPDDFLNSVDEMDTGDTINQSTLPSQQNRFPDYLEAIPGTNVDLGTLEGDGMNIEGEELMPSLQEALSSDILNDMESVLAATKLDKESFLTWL
UniProt A0A8C0NGY6: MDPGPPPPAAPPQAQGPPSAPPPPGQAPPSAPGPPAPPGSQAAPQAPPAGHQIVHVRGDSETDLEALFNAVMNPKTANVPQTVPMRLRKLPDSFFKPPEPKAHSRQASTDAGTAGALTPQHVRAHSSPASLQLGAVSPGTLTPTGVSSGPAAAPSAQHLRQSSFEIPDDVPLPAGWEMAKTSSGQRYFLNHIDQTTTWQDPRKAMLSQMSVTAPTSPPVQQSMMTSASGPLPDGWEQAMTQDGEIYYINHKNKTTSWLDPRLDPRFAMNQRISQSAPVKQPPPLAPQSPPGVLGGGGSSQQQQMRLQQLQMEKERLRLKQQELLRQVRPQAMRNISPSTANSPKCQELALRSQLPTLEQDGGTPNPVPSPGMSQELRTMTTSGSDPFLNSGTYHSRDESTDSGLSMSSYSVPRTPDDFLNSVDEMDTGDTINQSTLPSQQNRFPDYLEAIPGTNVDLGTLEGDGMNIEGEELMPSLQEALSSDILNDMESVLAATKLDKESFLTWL

The target of assay [2] is T2, full-length claudin-2 with C-terminal HA tag (Cldn2^FL/HA) (UniProt P57739).
T2 sequence: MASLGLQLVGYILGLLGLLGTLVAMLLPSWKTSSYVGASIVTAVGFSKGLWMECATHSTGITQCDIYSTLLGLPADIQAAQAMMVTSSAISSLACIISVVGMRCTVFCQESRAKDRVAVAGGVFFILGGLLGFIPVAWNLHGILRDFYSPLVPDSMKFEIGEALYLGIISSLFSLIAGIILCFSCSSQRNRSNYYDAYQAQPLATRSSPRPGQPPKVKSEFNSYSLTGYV
The assay is described as above.

The target of assay [3] is T3, claudin-2 (dog (endogenous in MDCK-II)) (UniProt Q95KM6).
T3 sequence: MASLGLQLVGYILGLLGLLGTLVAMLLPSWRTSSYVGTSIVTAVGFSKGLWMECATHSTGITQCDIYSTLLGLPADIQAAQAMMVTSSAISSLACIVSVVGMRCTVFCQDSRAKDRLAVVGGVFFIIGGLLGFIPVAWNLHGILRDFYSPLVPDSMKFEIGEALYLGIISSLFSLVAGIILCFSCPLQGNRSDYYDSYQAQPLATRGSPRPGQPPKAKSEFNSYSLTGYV
In words: co-IP; total MDCK-II cell lysate; immunoprecipitation with anti-claudin-2 antibody and blot with anti-YAP, or immunoprecipitation with anti-YAP antibody and blot with anti-claudin-2; endogenous proteins.

Assay [4] addresses T1, claudin-2 lacking the PDZ-binding motif, with C-terminal HA tag (Cldn2^ΔPDZ/HA). In words: co-IP; total lysate of MDCK-II cells transfected with Cldn2^FL/HA or Cldn2^ΔPDZ/HA; immunoprecipitation with anti-HA antibody, blot with anti-HA or anti-YAP.
Assay [5] has as its target T2, full-length claudin-2 with C-terminal HA tag (Cldn2^FL/HA). The assay is described as above.
The target in assay [6] is YES-associated protein (YAP) (dog (endogenous in MDCK-II)). Description: co-IP; total MDCK-II cell lysate; immunoprecipitation with anti-claudin-2 antibody and blot with anti-YAP, or immunoprecipitation with anti-YAP antibody and blot with anti-claudin-2; endogenous proteins.

No constants are given. Whether binding was seen depends on the method and setting. Binding seen in cells or lysates may run through a third protein. Some binding calls cover weakened binding; strength is not graded here. For part of these data: Sequences can lack the tags named with a protein.

Take “YES-associated protein (YAP) (from UniProt P46937 1-504)”: the binding result in assay [1] was “no binding”; in assay [2], “binds”.

In the case of “YES-associated protein (YAP) (from UniProt A0A8C0NGY6 1-506)”, the binding entry in assay [3] is recorded as “binds”; in assay [4], “no binding”; in assay [5], “binds”.

B1: claudin-2 (protein, UniProt Q95KM6 1-230)
chain: T3 sequence
B1: the binding result in assay [6] is given as “binds”.

The values above are taken from PMC7901196.
